Measured values taken from PubChem BioAssay AID504832 (National Center for Advancing Translational Sciences (NCATS), 2011).
Screen size: about 310,000 compounds; about 18,000 (5.8%) were called active. The shares of active, inactive and inconclusive entries below differ from those in the screen. The call rests on the fitted dose curve; in most records, active means well fitted inhibition curve with a large enough effect; inconclusive means small, poorly fitted or top-dose-only effect, or another doubt; inactive means no such curve, though single readings can be large or run the other way. Potencies of inconclusive entries are left out as doubtful fits.

Assay: Primary qHTS for delayed death inhibitors of the malarial parasite plastid, 48 hour incubation
Conditions: P. falciparum luciferase growth in erythrocytes; series mostly up to 28.7 µM; activity change, negative = inhibition: at the top concentration
Summary of the method: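 Growth was read as firefly luciferase luminescence after a 48 h, 37 C, 5% CO2 exposure of compounds to reporter-bearing P. falciparum cultures (0.1% parasitemia, 2% hematocrit final) in Albumax-supplemented RPMI 1640.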
On the % scale 0 is the no-effect control and ±100 the full control effect; potency means the concentration at half of the fitted maximal effect; tags describe the fitted curve by direction and shape.

SMILES	Potency	activity change, negative = inhibition
COc1ccccc1-n1cc(C(=O)N2CCCC(CO)(Cc3ccccc3C)C2)cn1 (stereo not given)	inconclusive [inhibitor, partial curve]	
COCCNC(=O)C(c1c[nH]c2ccccc12)N(C(=O)c1snc(C(N)=O)c1N)c1cccc(OC)c1 (stereo not given)	inconclusive [inhibitor, partial curve]	
CCc1nnc(NC(=O)CSc2ccc(-c3nc4ccccc4[nH]3)cn2)s1		inactive: 4.35%
O=S(=O)(c1ccc(F)cc1)N(CCO)CC(O)Cn1c2ccccc2c2ccccc21 (stereo not given)	active: 14.7 µM	
CC(C(=O)N1CCCC1)N1CCN(S(=O)(=O)c2ccc(OC(F)(F)F)cc2)CC1 (stereo not given)	inconclusive [inhibitor, partial curve]	
COc1cc(C(=O)NC(=S)N(CCc2ccccc2)CCc2ccccc2)cc(OC)c1OC	active: 10.4 µM	
CC(=O)c1c(C)[nH]c(C(=O)C(C)Sc2nnc(NC3CC3)s2)c1C (stereo not given)	active: 13.1 µM	
COc1ccccc1N1CCN(C(=O)c2sc3nc(-c4ccc(F)cc4)cn3c2C)CC1	inconclusive [inhibitor, single point]	
O=C(CCCN1C(=O)/C(=C/c2ccccc2Cl)SC1=S)N1CCCC1	inconclusive [inhibitor, partial curve, poor fit]	
OC(COc1ccccc1)CN(Cc1ccccc1)CC(O)COc1ccccc1 (stereo not given)	inconclusive [inhibitor, single point]	
COc1cccc(NS(=O)(=O)c2ccc(S(=O)(=O)N3CCCC3)cc2)c1		inactive: -19.3%
COC(=O)C1=C(c2ccccc2OCc2ccccc2)C[C@@H]2CC[C@H]1N2C(=O)NCc1ccc(C(C)(C)C)cc1	active: 6.57 µM	
CCC(=O)Nc1ccc(-n2nnnc2SCC(=O)NNC(=O)c2ccco2)cc1		inactive: 95.2%
O=C1CSC(c2cccc([N+](=O)[O-])c2)N1Cc1ccccc1 (stereo not given)		inactive: -20.1%
Oc1ccc(Cl)cc1CNCc1ccc(Cl)cc1	active: 3.7 µM	
Cc1ccc(CNC(=O)C2CCCN(S(=O)(=O)c3cccc4nonc34)C2)cc1 (stereo not given)		inactive: 1.42%
O=C1NC(=O)N(Cc2ccccc2)C(=O)/C1=C/N1CCCc2ccccc21		inactive: 1.38%
COc1ccc(N(Cc2cc3cc(OC)ccc3[nH]c2=O)C(=O)C2CCCO2)cc1 (stereo not given)	inconclusive [inhibitor, partial curve, poor fit]	
Cc1ccc(S(=O)(=O)NNC(=S)NCC2CCCO2)cc1 (stereo not given)		inactive: 22.2%
CCOC(=O)C1CCN(C(=O)C2CCCN(S(=O)(=O)c3ccc(OCC)c(Cl)c3)C2)CC1 (stereo not given)		inactive: -14.4%
Cc1nnc(NC(=O)CSc2nc3ccccc3[nH]2)s1		inactive: 31.1%
COc1ccc(C)cc1N(C(=O)c1ccc(F)cc1)c1nc2ccccc2s1	inconclusive [inhibitor, single point]	
CCCC(=O)Nc1ccc2oc(-c3ccc(OC)c(Br)c3)nc2c1	inconclusive [inhibitor, single point]	
COc1cc(C2C(C#N)=C(SC)NC3=C2C(=O)CCC3)ccc1O (stereo not given)		inactive: -16.4%

SMILES	Potency	activity change, negative = inhibition
O=C(c1cc(C2CC2)nn1-c1ccccc1)N1CCN(c2ncc(C(F)(F)F)cc2Cl)CC1	inconclusive [inhibitor, single point]	
COc1ccc(-c2cc(C(=O)NCc3cccs3)no2)cc1		inactive: 86.2%
c1ccc2c(c1)Cc1ccccc1O2		inactive: 9.79%
COc1cc(C(=O)N2CCN(c3ccc(C)cc3C)CC2)cc(OC)c1OC	inconclusive [inhibitor, partial curve]	
CCOC(=O)C(=O)Nc1nnc(C2CCCCC2)s1		inactive: 22.6%
O=C1CS/C(=N/N=C/c2cccs2)N1Cc1ccc(F)cc1	inconclusive [inhibitor, single point]	
Nn1c(Cc2ccccc2)nc2cc(Cl)ccc2c1=O		inactive: 6.28%
COc1ccc(/C=C/C(=O)NC(C)CCc2ccccc2)cc1OC (stereo not given)	inconclusive [inhibitor, single point]	
CC(=O)c1sc(NC(=O)C2CCN(C(=O)c3ccccc3C)CC2)nc1-c1ccccc1	inconclusive [inhibitor, partial curve, poor fit]	
COc1ccc(NC(=O)C2=C(C)NC(=O)NC2c2ccccc2[N+](=O)[O-])cc1 (stereo not given)		inactive: -0.334%
COc1cccc(NC(=O)CSc2nnnn2C2CCCCC2)c1		inactive: 16.7%
O=C(NCc1ccc(Cl)cc1)c1ccc(Cn2cc(C(F)(F)F)ccc2=O)cc1	inconclusive [inhibitor, single point]	
CCc1nc2ccccc2nc1N1CCN(S(=O)(=O)c2ccc(Cl)cc2)CC1	inconclusive [inhibitor, single point]	
OC(CNCc1ccccc1)(c1ccccc1)c1ccccc1	active: 13.1 µM	
COc1cc(C(=O)NC(C)CCc2ccccc2)cc(OC)c1OC (stereo not given)	inconclusive [inhibitor, full curve, poor fit]	
Cc1ccc(S(=O)(=O)N2Cc3ccccc3CC2C(=O)Nc2cc(C)on2)cc1 (stereo not given)		inactive: -17.5%
O=C1/C(=N\S(=O)(=O)c2cccs2)C([n+]2ccc(CCCc3ccccc3)cc2)=C([O-])c2ccccc21	active: 0.37 µM	
COc1ccc(S(=O)(=O)N2CCCCCC2)cc1C(=O)N(C)Cc1ccc(C)cc1	inconclusive [inhibitor, partial curve, poor fit]	
COc1ccc(OC)c(-c2cc(C3CCN(c4ncccc4[N+](=O)[O-])CC3)[nH]n2)c1	active: 8.28 µM	
Clc1cccc(Cl)c1CO/N=C/c1cccs1	inconclusive [inhibitor, single point]	
COC(=O)CCC(=O)N1CCc2cc(S(=O)(=O)N3CCN(c4ccccc4Cl)CC3)ccc21	inconclusive [inhibitor, full curve]	
Cc1ccc2c(C(=O)CN3CCCC3)c(C)[nH]c2c1	inconclusive [inhibitor, single point]	
COc1ccc(N(C)S(=O)(=O)c2cccc(C(=O)Nc3nnc(C4CC4)s3)c2)cc1	inconclusive [inhibitor, single point]	
Cc1nc(C(F)(F)F)c(C(=O)N/N=C(\N)c2ccccn2)s1	inconclusive [inhibitor, partial curve]	

SMILES	Potency	activity change, negative = inhibition
Cc1ccc2c(c1)nnn2C1CCN(S(=O)(=O)c2ccc(C(=O)N(C)C)cc2)CC1	inconclusive [inhibitor, partial curve, poor fit]	
COc1ccc(C2(c3ccc(OC)cc3)NC(=O)N(CC(=O)Nc3cc(C)ccc3OC)C2=O)cc1	inconclusive [inhibitor, partial curve, poor fit]	
CCn1c(SCC(=O)NC(C)C(C)C)nc2cc(S(=O)(=O)N3CCOCC3)ccc21 (stereo not given)	inconclusive [inhibitor, full curve, poor fit]	
COc1ccc(C)cc1S(=O)(=O)N1CCN(C/C=C/c2ccccc2)CC1	inconclusive [inhibitor, single point]	
CN1C(=O)C(=Cc2sc(=O)n(-c3ccccc3)c2N2CCCCC2)C(=O)N(C)C1=O	inconclusive [inhibitor, partial curve]	
CCN(CC)S(=O)(=O)c1ccc2[nH]c(=O)cc(C(=O)Nc3ccc(C)cc3)c2c1	inconclusive [inhibitor, partial curve, poor fit]	
CCOc1ccc(-c2nc(S(=O)(=O)c3ccccc3)c(NCc3cccnc3)o2)cc1	active: 13.1 µM	
Cc1ccc(-c2nnc(NC(=O)Cc3ccc(F)cc3)o2)c(C)c1		inactive: -11.8%
Cc1sc2c(c1C)C(c1ccc(C(C)(C)C)cc1)=NCC(=O)N2CC(=O)Nc1nccs1	inconclusive [inhibitor, single point]	
CCOc1ccc(N2C(=O)c3cccnc3C2Nc2ccc(OC)cc2)cc1 (stereo not given)	inconclusive [inhibitor, partial curve, poor fit]	
Cn1c(O)c(C=NC2CC(C)(C)NC(C)(C)C2)c(=O)n(C)c1=O	inconclusive [inhibitor, single point]	
O[C@@](CCN1CCCC1)(c1ccccc1)C1CCCCC1		inactive: -14.7% [at 12.8 µM]
Cc1cccc(N/N=C(\C=N\N)C(=O)c2ccc(Br)cc2)c1	active: 11.7 µM	
COc1ccc(C(=O)/C=C/C(=O)N(CC(=O)NCCC(C)C)Cc2cccs2)c(O)c1	inconclusive [inhibitor, partial curve]	
O=C1C2C3C=CC(CC3)C2C(=O)N1c1cccc(C(F)(F)F)c1 (stereo not given)	inconclusive [inhibitor, partial curve, poor fit]	
FC(F)(F)c1cccc(NC(=S)Nc2cccc(NC(=S)Nc3cccc(C(F)(F)F)c3)n2)c1	active: 11.7 µM	
COc1ccc(NC(=O)C23CC4CC(C2)CC(c2ccccc2)(C4)C3)c(OC)c1	inconclusive [inhibitor, single point]	
COC(=O)C1=C(c2cccc(OCc3ccccc3)c2)C[C@@H]2CC[C@H]1N2C(=O)NCCN1CCOCC1	inconclusive [inhibitor, partial curve, poor fit]	
COc1cccc(/C=N/Nc2nc(C)cc(=O)[nH]2)c1OC		inactive: 48.1%
CCOC(=O)C(NCCc1ccccc1F)(NC(C)=O)C(F)(F)F (stereo not given)		inactive: -15.3%
COc1cc(CNCCc2ccc(S(N)(=O)=O)cc2)ccc1OCC(=O)N1CCCCC1		inactive: 5.08%
Cc1cc(OCC(=O)N[C@@H](Cc2ccccc2)C(=O)O)c2c3c(c(=O)oc2c1)CCCC3	inconclusive [inhibitor, single point]	
